Results as given in the supplement of paper PMC7826260.
This is one part of the list. One pool of 16,384 single-stranded DNAs met each Rep nickase domain in vitro (1 h at 37 °C, 3 µM enzyme); the outer parts of the 90-letter strands are left off. Uncut reads are compared with the no-enzyme pool on a log2 scale; more negative means more cut, near 0 not cut, and no call is made. The scaling is to total reads; where an enzyme cuts many sequences, the uncut ones exceed 0.

Columns and labels:
Assay in all cases: uncleaved DNA left, log2 of reads against the no-enzyme library (log2 ratio); higher = less cleavage (more negative = more Rep cleavage of the k-mer); sequences stand for … in CTCGTCCG…ACCGGAGA
[1] = tested on: T1, Rep nickase domain of Muscovy duck circovirus
T1 sequence (protein, residues 1-111, tag omitted): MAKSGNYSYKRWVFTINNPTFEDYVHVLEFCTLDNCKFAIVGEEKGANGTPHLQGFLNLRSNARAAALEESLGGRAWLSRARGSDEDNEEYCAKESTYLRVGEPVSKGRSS
Description: (§1)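 A pool of 90-nt single-stranded DNAs with seven random bases just before the constant AC of the nick site (name = the seven bases) was cut by 3 µM recombinant His6-SUMO-tagged Rep nickase domain (300 nM DNA, 50 mM HEPES pH 8.0, 50 mM NaCl, 1 mM MnCl2, 1 h, 37 °C, three replicates). Uncut DNA was amplified and sequenced.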

[2] = tested on: T2, Rep nickase domain of banana bunchy top virus
T2 sequence (protein, residues 1-94, tag omitted): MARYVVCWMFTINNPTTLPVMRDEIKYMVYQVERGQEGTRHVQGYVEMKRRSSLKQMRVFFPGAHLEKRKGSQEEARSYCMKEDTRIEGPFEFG
Description: as §1

[3] = tested on: T3, Rep nickase domain of cabbage leaf curl virus
T3 sequence (protein, residues 1-116, tag omitted): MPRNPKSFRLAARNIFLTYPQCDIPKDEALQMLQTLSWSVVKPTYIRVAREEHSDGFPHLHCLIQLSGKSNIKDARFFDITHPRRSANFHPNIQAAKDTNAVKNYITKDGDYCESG
Description: as §1

[4] = tested on: T4, Rep nickase domain of chickpea chlorotic dwarf virus
T4 sequence (protein, residues 1-124, tag omitted): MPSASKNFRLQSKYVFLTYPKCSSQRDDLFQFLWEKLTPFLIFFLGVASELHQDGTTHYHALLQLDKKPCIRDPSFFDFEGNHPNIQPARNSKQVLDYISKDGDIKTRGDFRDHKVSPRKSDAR
Description: as §1

[5] = tested on: T5, Rep nickase domain of faba bean necrotic yellows virus
T5 sequence (protein, residues 1-98, tag omitted): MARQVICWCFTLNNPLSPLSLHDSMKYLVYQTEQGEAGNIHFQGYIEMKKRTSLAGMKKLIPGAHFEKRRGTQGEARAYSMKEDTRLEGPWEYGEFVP
Description: as §1

[6] = tested on: T6, Rep nickase domain of maize striate mosaic virus
T6 sequence (protein, residues 1-117, tag omitted): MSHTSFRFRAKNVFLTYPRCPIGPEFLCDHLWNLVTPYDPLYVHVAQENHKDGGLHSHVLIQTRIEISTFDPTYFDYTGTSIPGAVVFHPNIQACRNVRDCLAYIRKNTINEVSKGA
Description: as §1

[7] = tested on: T7, Rep nickase domain of porcine circovirus 2
T7 sequence (protein, residues 2-116, tag omitted): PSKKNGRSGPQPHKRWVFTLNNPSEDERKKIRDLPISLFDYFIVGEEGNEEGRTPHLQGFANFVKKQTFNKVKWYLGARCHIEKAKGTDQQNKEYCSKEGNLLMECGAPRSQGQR
Description: as §1

[8] = tested on: T8, Rep nickase domain of tomato yellow leaf curl virus
T8 sequence (protein, residues 1-136, tag omitted): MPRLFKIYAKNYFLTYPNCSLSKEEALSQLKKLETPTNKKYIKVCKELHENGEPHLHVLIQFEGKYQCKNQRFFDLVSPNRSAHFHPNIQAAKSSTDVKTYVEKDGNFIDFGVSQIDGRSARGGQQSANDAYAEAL
Description: as §1

[9] = tested on: T9, Rep nickase domain of wheat dwarf virus
T9 sequence (protein, residues 1-137, tag omitted): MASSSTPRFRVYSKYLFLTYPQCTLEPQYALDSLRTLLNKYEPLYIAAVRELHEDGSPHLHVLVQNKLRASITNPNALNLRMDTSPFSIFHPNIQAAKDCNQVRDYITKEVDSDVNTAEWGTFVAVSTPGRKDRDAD
Description: as §1

Sequence	uncleaved DNA left (log2) [1]	uncleaved DNA left (log2) [2]	uncleaved DNA left (log2) [3]	uncleaved DNA left (log2) [4]	uncleaved DNA left (log2) [5]	uncleaved DNA left (log2) [6]	uncleaved DNA left (log2) [7]	uncleaved DNA left (log2) [8]	uncleaved DNA left (log2) [9]
GCTTATC	0.0085	0.16	0.385	1.08	-0.0534	0.697	0.14	0.0777	0.19
CTGGGAA	0.197	0.0448	0.68	1.38	0.159	1.56	0.318	0.18	0.234
TTGTCCT	-0.722	-0.252	-0.0702	-1.99	-0.215	-0.666	-2.67	0.041	-0.131
TCAGCAT	0.0828	-0.175	0.0416	0.00428	-0.0858	-0.23	0.0689	0.0837	-0.0367
ACAAAAA	-0.00133	-0.0106	-0.0151	0.0771	0.0593	-0.698	0.16	-0.0591	0.0786
TCTTGTT	-3.02	-0.945	-0.85	-2.43	0.0141	-1.04	-3.1	0.0439	-0.665
CAATGAT	-0.797	-0.0719	-3.67	-2.75	0.065	-2.43	-3.62	-0.111	-3.35
AAAATCT	-0.066	-0.0919	-3.14	-2.85	0.0265	-1.13	-1.48	0.0564	-1.24
CGTTTTG	-0.0255	-0.0834	-0.455	-0.195	0.0925	-0.736	0.0965	0.124	0.101
CACCAAG	-0.0343	0.105	-0.881	-0.282	0.0281	-0.951	0.0885	0.0331	-0.0507
AATAGTA	-0.111	-0.0409	-0.246	-1.95	-0.0859	-1.05	-0.31	-0.0491	-0.0682
TTCTTCG	-0.0387	-0.103	-0.904	-0.27	-0.123	-1.29	-0.0223	-0.214	-0.245
GTCGAGT	0.0813	-0.0511	0.415	0.715	0.0234	1.43	0.115	-0.0638	0.0291
ACAACAA	-0.035	-0.0453	-0.165	-0.541	0.0592	-0.763	0.105	-0.123	-0.0177
CGCATCG	-0.0463	-0.116	-0.785	-0.13	-0.105	-1.16	0.0201	-0.126	-0.151
ACTTAGA	0.0181	-0.0423	-0.404	-0.35	-0.019	-1.27	0.0667	-0.059	-0.0896
GGTTCGT	0.125	0.0844	0.456	1.12	0.109	1.24	0.18	0.121	0.175
AGTGAGA	0.0301	0.0277	-0.07	0.0977	0.0543	-0.268	-0.0146	-0.0564	0.0184
ACCGCTC	-0.0853	-0.123	-0.228	-0.477	0.0401	-0.834	0.0638	-0.0808	-0.114
TTTCCTT	-0.0234	-0.0788	-0.0252	-2.16	-0.0919	-0.37	-0.953	-0.0368	-0.0386
GCATCAG	0.0868	0.0264	-0.67	-0.334	-0.0605	-0.797	0.191	0.0384	-0.123
GATTCGT	-0.763	-0.425	-0.156	-0.495	0.141	-0.703	-2.84	0.139	0.157
AGTATAC	-0.0627	-0.0445	0.0914	-0.244	-0.0292	-0.311	-0.0857	-0.0379	0.0169
GACACTC	-0.0526	-0.0553	0.279	0.526	-0.0182	0.722	-0.0309	-0.0261	0.0634
CGGGTAT	0.15	0.197	0.697	1.58	0.122	1.96	0.138	0.0544	0.0666
GATTGGA	-0.103	0.0129	-0.013	0.146	-0.0414	-0.208	-0.276	0.108	-0.017
AGGGGTC	-0.0254	0.0353	0.273	1.17	-0.0695	1.27	0.187	-0.0208	0.0769
AATGTCC	-0.0274	0.0556	0.188	1.2	-0.0685	0.944	0.0129	0.0483	0.0178
GGTGGGG	0.106	-0.0953	0.388	0.603	0.0821	0.609	0.134	0.0127	-0.0372
TCCTGAC	-0.00495	0.0371	0.0878	-0.242	0.0145	-0.0251	0.0272	-0.0656	0.00524
